For 79 molecules, relative cell viability results are on record in the supplement of paper PMC10670038.

SMILES strings stand for the structures. Where a name gives a salt, the structure may show the parent alone. ± gives the standard deviation of the averaged measurements. Over roughly 2,000 compounds, “relative cell viability vs DMSO, compound alone” has its median near 1.1; the lowest 2% begin near 0.29. The list shows a part of the results.

The assay concerns TE10. Kind of assay: relative cell viability vs DMSO, compound alone (fraction); TE10 is an esophageal squamous carcinoma line; higher = less cytotoxic. To be noted: 2 µM; 48 h. As to the method:
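TE10 ESCC cells (1,000/well, 384-well plates) were treated with Selleck bioactive library compounds at 2 uM alone for 48 h. Viability was read by CellTiter-Glo and expressed relative to DMSO wells. Two technical replicates (A, B).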
With `Cc1cccc(CC(=O)N2CCc3c2ccc(-c2cn(C)c4ncnc(N)c24)c3F)n1`, the relative cell viability came out at 1.01 ± 0.047.

Take `COc1ccc(-n2c(SCCCN3C(=O)c4cccc5cccc(c45)C3=O)nnc2-c2ccncc2)cc1`: the relative cell viability amounted to 1.09 ± 0.024. As to `CC(C)OC(=O)OCOP(=O)(CO[C@H](C)Cn1cnc2c(N)ncnc21)OCOC(=O)OC(C)C` [Tenofovir Disoproxil Fumarate], the relative cell viability amounted to 1.27 ± 0.055. `COc1c/c(=C2\C=c3ccccc3=N2)[nH]/c1=C\c1[nH]c(C)cc1C` [Obatoclax Mesylate (GX15-070)] came in with a relative cell viability of 0.4397 ± 0.0027. `Cc1cc(NS(=O)(=O)c2ccc(N)cc2)no1` [Sulfamethoxazole] came in with a relative cell viability of 1 ± 0.11. The result for `Nc1[nH]nc2nnc(-c3c(-c4ccccc4)nn4ccccc34)cc12` reads 1.08 ± 0.046; that for `COc1cc(N2CCC(N)CC2)ccc1Nc1ncc(Cl)c(-c2c[nH]c3ccccc23)n1`, 0.783 ± 0.016. Turning to `CCOC(=O)n1ccn(C)c1=S` [Carbimazole], the relative cell viability stood at 1.17 ± 0.025. Molecule `CC1(C)S[C@@H]2[C@H](NC(=O)C(C(=O)O)c3ccccc3)C(=O)N2[C@H]1C(=O)O` (some centres undefined) [Carbenicillin disodium] displayed a relative cell viability of 1.0374 ± 3.5e-05. Molecule `CC(C)(C)C(=O)C(Oc1ccc(Cl)cc1)n1ccnc1` (centres undefined) [Climbazole] showed a relative cell viability of 1.08 ± 0.021.

Molecule `CC(C)N(CCCNC(=O)Nc1ccc(C(C)(C)C)cc1)C[C@H]1O[C@@H](n2cc(Br)c3c(N)ncnc32)[C@H](O)[C@@H]1O` gave a relative cell viability of 0.972 ± 0.28. In turn, `COc1ccc2c(c1)c(C1=C(c3c[nH]c4ccccc34)C(=O)NC1=O)cn2CCCN(C)C` gave a relative cell viability of 1.07 ± 0.029. `O=c1cc(-c2ccccc2)oc2cc(O)cc(O)c12` [Chrysin] yielded a relative cell viability of 1.073 ± 0.0048. In the case of `C=C[C@@]1(C)CC(=O)[C@]2(O)[C@@]3(C)[C@@H](O)CCC(C)(C)[C@@H]3[C@H](O)[C@H](OC(C)=O)[C@@]2(C)O1` [Forskolin] it was 1.11 ± 0.067. In the case of `O=C(CCCCCN1C(=O)c2cccc3cccc(c23)C1=O)NO` [Scriptaid] it was 0.699 ± 0.099. The result for `Cc1cc(OCCCS(C)(=O)=O)cc(C)c1-c1cccc(COc2ccc3c(c2)OC[C@H]3CC(=O)O)c1` reads 1.121 ± 0.0019; that for `CCN(CC)C(=S)SSC(=S)N(CC)CC` [Disulfiram], 0.298 ± 0.03; that for `COc1cc2/c(=N/c3ccc(Br)cc3F)nc[nH]c2cc1OCC1CCN(C)CC1` [Vandetanib (ZD6474)], 1.26 ± 0.092. `CC1(C)O[C@@H]2C[C@H]3[C@@H]4CCC5=CC(=O)C=C[C@]5(C)[C@H]4[C@@H](O)C[C@]3(C)[C@]2(C(=O)CO)O1` [Desonide] returned a relative cell viability of 0.9976 ± 0.0055. For the molecule `O=C(O)c1ccc2c(c1)nc(Nc1cccc(Cl)c1)c1ccncc12` [CX-4945 (Silmitasertib)], the relative cell viability was 0.843 ± 0.13. `O=C1CC(=O)c2c(Cl)c(Cl)c(Cl)c(Cl)c21` registered a relative cell viability of 1.05 ± 0.019.

As for `NCCCCCNCC12CC3CC(CC(C3)C1)C2` [IEM 1754 dihydrobroMide], the relative cell viability worked out at 1.16 ± 0.054. In the case of `Nc1nonc1C(=Nc1ccc(F)c(Cl)c1)NO` it was 1.09 ± 0.054; in that of `O=C(CCCCCCC(=O)Nc1ccccc1)NO` [Vorinostat (SAHA, MK0683)], 0.568 ± 0.064. `O=C(/C=C/c1ccc(O)c(O)c1)c1ccc(O)cc1O` [Butein]: the relative cell viability was 1.02 ± 0.042. In turn, `COc1ccc(S(=O)(=O)Nc2cccnc2Nc2ccc(O)cc2)cc1` registered a relative cell viability of 0.809 ± 0.052. Consider `O=C(Nc1cc2cc[nH]c2cn1)c1ccccc1`, for which the relative cell viability came out at 0.53 ± 0.024.

Molecule `O=C1NCCc2[nH]c(-c3ccncc3)cc21` gave a relative cell viability of 1.09 ± 0.14.

For the molecule `COC(=O)C1=C(C)NC(C)=C(C(=O)OC2CCCN(Cc3ccccc3)C2)C1c1cccc([N+](=O)[O-])c1` (centres undefined) [Benidipine HCl], the relative cell viability was 1.06 ± 0.025. As to `CCNC(=O)CCC/C=C\C[C@@H]1[C@@H](/C=C/[C@@H](O)CCc2ccccc2)[C@H](O)C[C@@H]1O` [Bimatoprost], the relative cell viability is 1.134 ± 0.005. The result for `Nc1nc2c(ncn2COCCO)c(=O)[nH]1` [Aciclovir] reads 1.06 ± 0.045; that for `COc1ccc2[nH]c([S@@+]([O-])Cc3ncc(C)c(OC)c3C)nc2c1` [Esomeprazole Sodium], 1.15 ± 0.057; that for `COc1ccc2[nH]c([S@@+]([O-])Cc3ncc(C)c(OC)c3C)nc2c1` [Esomeprazole Magnesium], 1.2 ± 0.017. `CC(C)NCC(O)c1ccc(O)c(O)c1` (centres undefined) [Isoprenaline HCl] displayed a relative cell viability of 1.01 ± 0.019. `CS(=O)(=O)N1CCN(Cc2cc3nc(-c4cccc5[nH]ncc45)nc(N4CCOCC4)c3s2)CC1`: the relative cell viability is 0.483 ± 0.0077. As for `NC1CC1c1ccc(-c2cccc(O)c2)cc1` (centres undefined), the relative cell viability came to 1.09 ± 0.03. `COc1c(N2C[C@@H]3CCCN[C@@H]3C2)c(F)cc2c(=O)c(C(=O)O)cn(C3CC3)c12` [Moxifloxacin HCl] had a relative cell viability of 1.18 ± 0.016. In turn, `CC(=O)OCC(=O)[C@@]1(O)[C@H](C)C[C@H]2[C@@H]3CCC4=CC(=O)C=C[C@]4(C)[C@@]3(F)[C@@H](O)C[C@@]21C` [Dexamethasone Acetate] yielded a relative cell viability of 0.868 ± 0.012. `COc1ccc(C(=O)CC(=O)c2ccc(C(C)(C)C)cc2)cc1` [Avobenzone] gave a relative cell viability of 1.14 ± 0.063. Regarding `CCOC(=O)C1=C(C)NC(C)=C(C(=O)OCC)C1c1ccccc1/C=C/C(=O)OC(C)(C)C` [Lacidipine], the relative cell viability is 0.993 ± 0.065. As for `CCOc1cc(CC(=O)N[C@@H](CC(C)C)c2ccccc2N2CCCCC2)ccc1C(=O)O` [Repaglinide], the relative cell viability was 1.15 ± 0.16.

As for `O=C(O)C(Cc1c[nH]c2ccccc12)N1C(=O)c2ccccc2C1=O` (centres undefined), the relative cell viability was determined as 0.692 ± 0.032.

For `COc1cc(F)c(F)c(Nc2ccc(I)cc2F)c1NS(=O)(=O)C1(C[C@H](O)CO)CC1` [Refametinib (RDEA119, Bay 86-9766)], the relative cell viability was 0.9425 ± 0.0049. With `C#C[C@]1(O)CC[C@H]2[C@@H]3CCc4cc(O)ccc4[C@H]3CC[C@@]21C` [Ethinyl Estradiol], the relative cell viability is 1.07 ± 0.03. Turning to `CC#CC(=O)Nc1ccc2ncnc(Nc3cccc(Br)c3)c2c1`, the relative cell viability stood at 0.773 ± 0.043.

Turning to `O=S(=O)(c1ccccc1)N(CC(F)(F)F)c1ccc(C(O)(C(F)(F)F)C(F)(F)F)cc1`, the relative cell viability turned out to be 1.1 ± 0.037. As for `CCCCN(Cc1ccc(C(=O)NO)cc1)C(=O)Nc1ccccc1` [Nexturastat A], the relative cell viability worked out at 0.716 ± 0.074. Regarding `COC(=O)N[C@H](C(=O)N1CCC[C@H]1c1ncc(-c2ccc(-c3ccc(-c4cnc([C@@H]5CCCN5C(=O)[C@@H](NC(=O)OC)C(C)C)[nH]4)cc3)cc2)[nH]1)C(C)C`, the relative cell viability came to 1.05 ± 0.11. For the molecule `C=C1CC2(O)OC3(CC2C(C)C)C(C)CCC13` (centres undefined) [Curcumol], the relative cell viability was determined as 0.93 ± 0.042. Take `CCOC(=O)c1ncn2c1CN(C)C(=O)c1cc(F)ccc1-2` [Flumazenil]: the relative cell viability came out at 0.9985 ± 0.0051. `CNC(=O)c1ccccc1Nc1nc(Nc2ccc(N3CCOCC3)cc2OC)ncc1Cl` gave a relative cell viability of 0.758 ± 0.071.

`CC1=C(C(=O)Nc2cc3cn[nH]c3cc2F)C(c2ccc(C(F)(F)F)cc2)CC(=O)N1` (centres undefined) gave a relative cell viability of 1.24 ± 0.015. Turning to `Cc1cc(C)c2c(c1)[C@@H](N(Cc1cc(C(F)(F)F)cc(C(F)(F)F)c1)c1nnn(C)n1)CCCN2C[C@H]1CC[C@H](C(=O)O)CC1`, the relative cell viability is 1.13 ± 0.018. With `CCCC1O[C@@H]2C[C@H]3[C@@H]4CCC5=CC(=O)C=C[C@]5(C)[C@H]4[C@@H](O)C[C@]3(C)[C@]2(C(=O)CO)O1` (some centres undefined) [Budesonide], the relative cell viability was found to be 1.11 ± 0.033. As to `COc1cc(C(C)=O)ccc1OCCCN1CCC(c2noc3cc(F)ccc23)CC1` [Iloperidone], the relative cell viability was 1.24 ± 0.018.

In the case of `CCOC(=O)[C@H](CCc1ccccc1)N[C@H]1CCCN2CCC[C@@H](C(=O)O)N2C1=O` [Cilazapril Monohydrate], the relative cell viability amounted to 1.011 ± 0.004.

In the case of `COc1ccc(/C=C\c2cc(OC)c(OC)c(OC)c2)cc1O` [Combretastatin A4], the relative cell viability turned out to be 1.04 ± 0.017. Consider `c1cc(-c2cnn3cc(-c4ccc(N5CCNCC5)cc4)cnc23)c2cccnc2c1`, for which the relative cell viability turned out to be 0.0982 ± 0.0034. Consider `NCCCC[C@@H]1NC(=O)[C@@H](Cc2ccccc2)NC(=O)[C@H](CC(=O)O)NC(=O)CNC(=O)[C@H](CCCN=C(N)N)NC1=O` [Cyclo (-RGDfK)], for which the relative cell viability is 1.1 ± 0.024.

`CS(=O)(=O)c1ccc(-c2cnc(N)c(C(=O)Nc3ccccc3)n2)cc1` had a relative cell viability of 0.897 ± 0.19. Molecule `NS(=O)(=O)c1cc(Cl)c(Cl)c(S(N)(=O)=O)c1` [Dichlorphenamide] registered a relative cell viability of 1.202 ± 0.0028. In the case of `O=C(Oc1ccccc1C(=O)O)c1ccccc1O` [Sasapyrine] it was 1.1 ± 0.026. With `COc1c(C)c2c(c(O)c1C/C=C(\C)CCC(=O)O)C(=O)OC2` [Mycophenolic acid], the relative cell viability stood at 0.805 ± 0.028. In the case of `O=C(O)C1=CO[C@@H](O[C@@H]2O[C@H](CO)[C@@H](O)[C@H](O)[C@H]2O)[C@@H]2C(CO)=CC[C@H]12` [Geniposidic acid] it was 1.033 ± 0.008; in that of `C[C@H](Cc1cc2c(c(C(N)=O)c1)N(CCCO)CC2)NCCOc1ccccc1OCC(F)(F)F` [Silodosin], 1.06 ± 0.12; in that of `CN(C)CCOc1ccc(-c2nc(-c3ccncc3)c(-c3ccc4c(c3)CC/C4=N\O)[nH]2)cc1`, 1.27 ± 0.03. Turning to `Cc1ccc(-n2sc(=O)n(Cc3ccc(F)cc3)c2=O)cc1`, the relative cell viability is 1.02 ± 0.11. `Cc1cc(Cl)ccc1OCCCC(=O)NO` [Droxinostat] displayed a relative cell viability of 1.2 ± 0.12. `O=C(NCCN1CCOCC1)c1ccc(Cl)cc1`: the relative cell viability is 1.17 ± 0.095. `C/C(=C\C(=O)Nc1ccccc1C(=O)O)c1ccc2ccccc2c1` gave a relative cell viability of 1.19 ± 0.044. `O=C(c1ccc(/C=C/c2n[nH]c3ccccc23)cc1)N1CCNCC1` displayed a relative cell viability of 0.766 ± 0.045.

Turning to `Nc1c(CC(=O)O)cccc1C(=O)c1ccc(Br)cc1` [Bromfenac Sodium], the relative cell viability is 1.09 ± 0.046. Molecule `Cc1c(C(=O)Nc2ccc(N3CCC(N4CCOCC4)CC3)c(C#N)c2)cnn1-c1ccc(Cl)cc1` displayed a relative cell viability of 1.08 ± 0.024. In turn, `C[C@H]1O[C@@H](n2cc(F)c(=O)[nH]c2=O)[C@H](O)[C@@H]1O` [Doxifluridine] registered a relative cell viability of 1.02 ± 0.031.

`CC(C)(C)c1nc(-c2cccc(NS(=O)(=O)c3c(F)cccc3F)c2F)c(-c2ccnc(N)n2)s1`: the relative cell viability stood at 1.12 ± 0.033.

Turning to `CC1(C)CC[C@]2(C(=O)O)CC[C@]3(C)C(=CC[C@@H]4[C@@]5(C)CC[C@H](O)C(C)(C)[C@@H]5CC[C@]43C)[C@@H]2C1` [Oleanolic Acid], the relative cell viability amounted to 1.16 ± 0.034. In turn, `O=C(O)CCCCC(CCSCc1ccccc1)SCc1ccccc1` (centres undefined) had a relative cell viability of 1.166 ± 0.0081.

For `O=c1c(-c2ccc(O)cc2)coc2cc(O)ccc12` [Daidzein], the relative cell viability was 0.851 ± 0.038. Regarding `C[C@@H](O)[C@H]1C(=O)N2C(C(=O)O)=C(S[C@@H]3CN[C@H](C(=O)N(C)C)C3)[C@H](C)[C@H]12` [Meropenem], the relative cell viability is 1.09 ± 0.068.
